Data on 22 molecules can be found in article PMC12136788.

The list shows a part of the results.

T1: UNK ZnF1-3 (human, UniProt Q9C0B0 31-174)
T1 sequence: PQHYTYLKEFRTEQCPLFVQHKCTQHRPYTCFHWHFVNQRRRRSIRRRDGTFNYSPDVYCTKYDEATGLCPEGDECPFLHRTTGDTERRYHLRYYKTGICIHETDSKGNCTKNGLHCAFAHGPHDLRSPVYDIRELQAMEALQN

B1: chr7:125341739:125341740:-_ENSMUSG00000030655_ENSMUST00000032891|mus_mus|FALSE|FALSE (ssRNA)
RNA: GGGAGUUCUACAGUCCGACGAUCUCUGUAUAGAACAUCUGUUACGUAUGCCUCUGUAAUUGGUGGACCCCGAAUUGGGCUAAAGCGUUCCCCAAUGCUCCUCACCACAGUACUGAACACACGGAGAAGUGCUGCCAGCUUUGGCAACAGAGGAUUGAGCAUCA
B2: chr12:42180722:42180723:-_ENSMUSG00000036295_ENSMUST00000043884|mus_hu|mus_mus_mus_hu_True|58_88 (ssRNA)
RNA: GGGAGUUCUACAGUCCGACGAUCCUGUAGGAGAAGAAUCUGUGUGUCGGCAGGCAAUCUGGCUGGGAAAGUUAAAAGCCCUAAAUCAUUACAAUCCACUGUAGAUGCUUCCAUAUAAAUGGAUCUGGGUGUAAACCAAGGCCUCAACAGAGGAUUGAGCAUCA
B3: chr14:35182089:35182090:-_ENSG00000165410_ENST00000422678|hu_hu|FALSE|FALSE (ssRNA)
RNA: GGGAGUUCUACAGUCCGACGAUCCUUAAGAUCCAGAUGGCACUUGACUGUCAUUUUAUAAUGGUUUUCCUUCAAGUGAAACUACUACAUUGCCUCCCAAUUUCUCUCCAAGUGUCGAACGGUCCUUAAUAUCAUCCAAGCCAUCAACAGAGGAUUGAGCAUCA
B4: chr5:71493418:71493419:+_ENSG00000131711_ENST00000296755|hu_mus|FALSE|FALSE (ssRNA)
RNA: GGGAGUUCUACAGUCCGACGAUCCCCUUCAAAGGGGCUUUCGGAACGUCUGCCAAGAACCUUGCUAUCAGCACUCAGGAAGUCUUCAUAUGGGGACUCAGAUCCAAGAAGGGGAGGACUGCGUAAAGGAGACAGAACCUUCUCCAACAGAGGAUUGAGCAUCA
B5: 114354355_114354475_683_3pUTR_ENSG00000081019_ENST00000261441|human|control|control (ssRNA)
RNA: GGGAGUUCUACAGUCCGACGAUCGCACCCCUCCAGUCCUCUCGCCGUUUUCCUGCUUGUCCUUGUGCUUGAGAUCGGUUCCGCAGGAGCUGGGAUCACCAUCGGGGCCGCGGUGGUGAUGGUGCUUGUGCCGCUCCUUGUGGCCAACAGAGGAUUGAGCAUCA
B6: chr1:39494564:39494565:+_ENSG00000168653_ENST00000372967|hu_hu|hu_hu_hu_mus_True|88_88 (ssRNA)
RNA: GGGAGUUCUACAGUCCGACGAUCAUGCAUUCGCCUCAUCGUUUUGUGCCGAAGCAAGCACUCUUCGAAGUCAUCGAACUCUAUCUUGCACUCCUUUUUCGCCCGGGUCCCACCGAUCCCGUGUGCACACUCUAUCCACUCUUUCAACAGAGGAUUGAGCAUCA
B7: 171625122_171625242_3334_3pUTR_ENSMUSG00000026678_ENSMUST00000027997|mouse|control|control (ssRNA)
RNA: GGGAGUUCUACAGUCCGACGAUCAGAAAGCUUUUUCUUUGGUUUUCAAUUGCUUUCAUUAGCCACAGGACUUAUUUAAUGGGAAAAGUGUUUAACACCAGAAGUAGUUUUGAAAUUGCUGGCUUUGUGCUGAGAAUGUUCAAUCAACAGAGGAUUGAGCAUCA
B8: 18684143_18684521_187_CDS_ENSG00000221983_ENST00000430157|human|control|control (ssRNA)
RNA: GGGAGUUCUACAGUCCGACGAUCCUCCAGCUGUUUGCCGGCAAAUAUCAGACGCUGCUGGUCAGGUGGGAUACCCUCCUUGUCUUGAAUUUUGGCUUUGACAUUCUCAAUGGUGUCACUGGGCUCGACCUCAAGGGUGAUGGUCAACAGAGGAUUGAGCAUCA
B9: 156514000_156517885_2354_CDS_ENSG00000183856_ENST00000361170|human|control|control (ssRNA)
RNA: GGGAGUUCUACAGUCCGACGAUCGGCCCAGGCCUGGAUCUUGAUUAUGGCAUCCAGGUUUGCUUUAAAAUACUGCAACCACUCCAGGUAAAUCUUCCGCUGCCUAUAACCCCGCCAAUGAGCCUGGAUCUUGAUGACUGCUGGCAACAGAGGAUUGAGCAUCA
B10: chr6:38652254:38652255:-_ENSG00000124767_ENST00000373365|hu_hu|hu_hu_hu_mus_False|48_68 (ssRNA)
RNA: GGGAGUUCUACAGUCCGACGAUCCGAGAACUUCAUAGCAGGGAAGUCAAGCUUCUGCAGGAGGGUCAUUCCAAGAACCCUCGUAUAAAAAUCCAGUGACUUCUUAGGAUCCUUAAUUCUUAGCAUCGUUUGCUGCAGUAGAAACAACAGAGGAUUGAGCAUCA
B11: chr6:114281168:114281169:-_ENSG00000196591_ENST00000368632|hu_hu|hu_hu_hu_mus_True|1_1 (ssRNA)
RNA: GGGAGUUCUACAGUCCGACGAUCUUCCAUUUUUCGGUAUAAACCAUAAUUUAGCAGCAAGUUAUGAGUCAUCCGGAUUCUAUGAGGCUUCAUGGGAUGACCCUGGCCAUAAUAAUAAUUGCCAAUAUCACCAUCAUACUAGAACAACAGAGGAUUGAGCAUCA
B12: chr1:46159212:46159213:+_ENSG00000159596_ENST00000372025|hu_mus|hu_hu_hu_mus_True|58_68 (ssRNA)
RNA: GGGAGUUCUACAGUCCGACGAUCUCUGAUCCCUCCCAAGAAAGCUAGGAAACCGGCUCCAUAAGCCAUCUGAGUAAAAGCUAAUAUGGGGAUAUAAGACUUUGUUAUUACCAUGAGAAGUGGGGGAGCAGUAAAGGGGAUUAACAACAGAGGAUUGAGCAUCA
B13: chr8:104433209:104433210:+_ENSG00000164934_ENST00000297579|hu_hu|FALSE|FALSE (ssRNA)
RNA: GGGAGUUCUACAGUCCGACGAUCAAAGCCUUCAUGUGCUUGUAUUGUACGGAUACAAUUCCGCUGAGUUAGAUUCCAAAUUCUAACCUCUCCAUCACACGCCCCAGAAAGGACAGUAGCCAGCUUCUCUGGAUGCUUUGCCAACAACAGAGGAUUGAGCAUCA
B14: 34754486_34754606_5801_CDS_ENSMUSG00000039967_ENSMUST00000047950|mouse|control|control (ssRNA)
RNA: GGGAGUUCUACAGUCCGACGAUCAUUAGAAUUUCUUGUAAAUGUUUUGGUACAUGAAGGUACUACACAUUUAAAUGGAGCAAAUUUUAAUUGAUUCUUCUUAAUUUCAAGAAUCAUCUCUGGAGUAUACUGAUGGAUUUUACCCAACAGAGGAUUGAGCAUCA
B15: 124533939_124534059_1210_CDS_ENSMUSG00000042763_ENSMUST00000064444|mouse|control|control (ssRNA)
RNA: GGGAGUUCUACAGUCCGACGAUCCAGAUACAGGCGAGUUGGCGUCGUCUUGGGGACAGCUUUCUCAAUCUGUGUGCCCUCGUGCCACUCAUUGAAGGAGGUGAUAGAGACUAUCUCGGGCCUCACAGUCAGGGCUGCCUGCAGCAACAGAGGAUUGAGCAUCA
B16: chr4:33586012:33586013:+_ENSMUSG00000028274_ENSMUST00000108153|mus_mus|motif|central (ssRNA)
RNA: GGGAGUUCUACAGUCCGACGAUCCGAGAUGCUAUUGCACACAGCCAUGGCUGUGUUGUAGGCAUUUGGGAAACUUUUGUCGGUCCUCUGUCUCAUGAAGACCCAGCUAUUGUUCUCAAAUUUGCAUUCUAUAAUUUUGUUGUCCAACAGAGGAUUGAGCAUCA
B17: chr8:97196980:97196981:+_ENSMUSG00000031776_ENSMUST00000034228|mus_mus|FALSE|FALSE (ssRNA)
RNA: GGGAGUUCUACAGUCCGACGAUCGCCUGCUGGUCUGGUGAACUCAUGUCAAUCACACCGGUUGUGCGAAGGUGGGACCUAGUGCCGCAGGUUGUUCUGGGAAGCUGGCGUAGAAGAUGACUUACACAGAGAAGUCACAACCAACAACAGAGGAUUGAGCAUCA
B18: 19967392_19969057_911_3pUTR_ENSMUSG00000002428_ENSMUST00000002502|mouse|control|control (ssRNA)
RNA: GGGAGUUCUACAGUCCGACGAUCUCCCAGAAUGGUGGUAGUUCUUUACUGUUCUCUCGUGCGAUCAUCCAAGCUAGAGCUUGUUUUUGGUGUGGAAGCAACGGUGUUUCAAUAGCCUCAGCUGGUUCCAUUUCAACAGUUCUACAACAGAGGAUUGAGCAUCA
B19: chr2:32339754:32339755:+_ENSG00000021574_ENST00000315285|hu_mus|motif|central (ssRNA)
RNA: GGGAGUUCUACAGUCCGACGAUCACCGGAGAGCCCUGCGGAGCCACUUUUCAGGACAGUUUUUGAUCGAGGCAAUGAAUUACGGGCAUGUGUUAAGGGGUCUUUCCUCUUCGGAACUGCUCCACUUUCUGACUGGAGAUGUCCCAACAGAGGAUUGAGCAUCA
B20: chr2:191069868:191069869:-_ENSG00000198130_ENST00000359678|hu_hu|motif|central (ssRNA)
RNA: GGGAGUUCUACAGUCCGACGAUCUAUAAAAACAGGCAGCAGGCUGGAUUUGGCCCACAUGCUGUAGAUUGCCAACCCAUGCGGCAAAAUAUACCUUAAAAGCCUGUCACCUCAAAAUUUCAAAUCACUGCUUCCCAAAGACUUCAACAGAGGAUUGAGCAUCA
B21: 46963340_46963460_1689_3pUTR_ENSMUSG00000025041_ENSMUST00000168536|mouse|control|control (ssRNA)
RNA: GGGAGUUCUACAGUCCGACGAUCUUCAUCAUGGCAGUGUGUGAUCUCCUGGGGGGCCAGCGGGAAGAGGUUGGGGGGCUUGAUCUCACUAAUGGACCUUGUAAGCUGGUGUCGCUUAUAGUCAGUGUCUUUGAAAUCCACUGACAACAGAGGAUUGAGCAUCA
B22: 98288003_98288123_2113_3pUTR_ENSG00000180543_ENST00000322128|human|control|control (ssRNA)
RNA: GGGAGUUCUACAGUCCGACGAUCACAGGCAGUUCUUGAGGUCCUUGUUGACCAGGAAGCCAACUGGGGCUGACAGCAACCCAGACAAAACUUAAUGGCUUGAUAGUGACACGGCAUGGCGCAGAUCUUGAUGAAAGUUCACCACAACAGAGGAUUGAGCAUCA

For this assay, the target named is T1, UNK ZnF1-3. The experiment in a line: nsRBNS (natural sequence RNA bind-n-seq); RBNS binding buffer (assumed for nsRBNS): 25 mM Tris pH 7.5, 150 mM KCl, 3 mM MgCl2, 0.01% Triton X-100, 500 ug/ml BSA, 20 U/ml SUPERase-In, 4 C; UNK is unkempt and MSI1 is Musashi-1; names of the RNAs are library labels; protein concentration not given here; high values mean tight binding.
B1 gave a binding signal of 0.683 enrichment R. The value for B2 was 1.15 enrichment R. In the case of B3 it was 0.879 enrichment R.

B4 displayed a binding signal of 1.13 enrichment R.

For B5, the binding signal is 0.738 enrichment R.

As to B6, the binding signal is 0.677 enrichment R. The value for B7 was 0.771 enrichment R; that for B8 was 0.766 enrichment R. For the molecule B9, the binding signal is 1.03 enrichment R.

The molecule B10 had a binding signal of 0.835 enrichment R.

Regarding B11, the binding signal is 0.878 enrichment R. Consider B12, for which the binding signal came to 1.48 enrichment R. In the case of B13 it was 0.874 enrichment R; in that of B14, 0.408 enrichment R. For the molecule B15, the binding signal was 0.784 enrichment R.

Molecule B16 registered a binding signal of 0.236 enrichment R.

With B17, the binding signal was found to be 0.932 enrichment R. In the case of B18 it was 0.75 enrichment R. The value for B19 was 1.3 enrichment R; that for B20 was 1.27 enrichment R; that for B21 was 0.884 enrichment R. As for B22, the binding signal turned out to be 1.01 enrichment R.
